Measurements published in patent US5607922A, “1,5-anhydrohexitol nucleoside analogues” (Stichting Rega VZW, priority 1992, dated 1997).
In brackets after ≈: the same amount, converted by molar mass.

How the values were obtained:
[1] = test system: VMW/837 (herpes simplex virus missing a specific thymidine kinase); experiment: Inhibition of TK- herpes simplex virus, clinically isolated strain VMW/837, in E6 SM cell cultures; format: cell-based; conditions: E6SM, read-out: Minimum inhibiting concentration ED50 VV VMW/837 #3
[2] = test system: TK- Cheng C 158/77 (herpes simplex virus missing a specific thymidine kinase); experiment: microbe, parasite or virus in culture; conditions: Human alphaherpesvirus 1, E6SM, read-out: Minimum inhibiting concentration ED50 HSV-1 TK- Cheng C 158/77
Protocol: (§1) The tests were based on the inhibition of virus-induced cytopathogenesis in cell cultures. A standard procedure is described by De Clercq et al., J. Infect. Dis. 141, 463 (1980) which is incorporated herein by way of reference.
(§2) Further, the inhibiting effect of the test compounds on virus multiplication in E6 SM cell cultures was measured making use of herpes simplex viruses missing a specific thymidine kinase. Three different strains were used: TK^- Cheng, TK^- Field and a clinically isolated strain VMW/837.

[3] = test system: TK- Field C 137/101 (herpes simplex virus missing a specific thymidine kinase); experiment: microbe, parasite or virus in culture; conditions: Human alphaherpesvirus 2, E6SM, read-out: Minimum inhibiting concentration ED50 HSV-2 TK- Field C 137/101
Protocol: as §1, §2

[4] = test system: Herpes simplex virus-1 TK- B2006; experiment: microbe, parasite or virus in culture; conditions: Human alphaherpesvirus 1, E6SM, read-out: Minimum inhibitory concentration Herpes simplex virus-1 TK- B2006
Protocol: as §1
(§3) The cytotoxicity and antiviral activity of compound 24 were tested in various cell cultures.

[5] = test system: Herpes simplex virus-1 TK- VMW1837; experiment: microbe, parasite or virus in culture; conditions: Human alphaherpesvirus 1, E6SM, read-out: Minimum inhibitory concentration Herpes simplex virus-1 TK- VMW1837
Protocol: as §1, §3

Row | SMILES | EC50 [1] | EC50 [2] | EC50 [3] | EC50 [4] | EC50 [5]
1 | Nc1nccc2c1ncn2[C@@H]1C[C@H](CO)[C@@H](O)[C@H]1O (relative stereo) [C-c^3 Ado, carbocyl 3-deaza adenosine] | > 400 µg/mL | 70 µg/mL (≈ 265 µM) | > 400 µg/mL | 70 µg/mL (≈ 265 µM) | > 200 µg/mL
2 | Nc1ncnc2c1ncn2C[C@H](O)CO [(S)-DHPA, (S)-9-(2,3-dihydroxypropyl)-adenine] | > 400 µg/mL | 400 µg/mL (≈ 1910 µM) | > 400 µg/mL | 100 µg/mL (≈ 478 µM) | > 200 µg/mL
3 | O=c1[nH]c(=O)n([C@H]2C[C@H](O)[C@@H](CO)O2)cc1/C=C/Br [BVDU, E-5-(2-bromovinyl)-2'-deoxyuridine] | 4 µg/mL (≈ 12 µM) | 10 µg/mL (≈ 30 µM) | 10 µg/mL (≈ 30 µM) | 1 µg/mL (≈ 3 µM) | 70 µg/mL (≈ 210 µM)
4 | Nc1ncnc2c1ncn2[C@@H]1CO[C@H](CO)[C@@H](O)C1 [Compound 10, 1,5-Anhydro-2-(adenin-9-yl) 2,3-dideoxy-D-arabinohexitol] | 20 µg/mL (≈ 75.4 µM) | 150 µg/mL (≈ 565 µM) | 70 µg/mL (≈ 264 µM) |  | 
5 | Nc1nc2c(ncn2[C@@H]2CO[C@H](CO)[C@@H](O)C2)c(=O)[nH]1 [Compound 13, 1,5-Anhydro-2-(guanin-9-yl)-2,3-dideoxy-D-arabinohexitol] | 2 µg/mL (≈ 7.11 µM) | 20 µg/mL (≈ 71.1 µM) | 20 µg/mL (≈ 71.1 µM) |  | 
6 | Cc1cn([C@@H]2CO[C@H](CO)[C@@H](O)C2)c(=O)[nH]c1=O [Compound 17, 1,5-Anhydro-2,3-dideoxy2-(thymin-1-yl)-D-arabinohexitol] | > 200 µg/mL | > 200 µg/mL | > 200 µg/mL |  | 
7 | O=c1[nH]c(=O)n([C@@H]2CO[C@H](CO)[C@@H](O)C2)cc1I [Compound 18, 1,5-Anhydro-2,3-dideoxy-2-(5-iodouracil-1-yl)-D-arabino-hexitol] | 1 µg/mL (≈ 2.72 µM) | > 200 µg/mL | > 200 µg/mL |  | 
8 | Nc1ccn([C@@H]2CO[C@H](CO)[C@@H](O)C2)c(=O)n1 [Compound 20, 1,5-Anhydro-2-(cytosin-1-yl)-2,3-dideoxy-D-arabinohexitol] | 2 µg/mL (≈ 8.29 µM) | 2 µg/mL (≈ 8.29 µM) | 2 µg/mL (≈ 8.29 µM) |  | 
9 | CCc1cn([C@@H]2CO[C@H](CO)[C@@H](O)C2)c(=O)[nH]c1=O [Compound 23, 1,5-Anhydro-2,3-dideoxy-2-(5-ethyluracil-1-yl)-D-arabinohexitol] |  |  |  | > 200 µg/mL | > 200 µg/mL
10 | O=c1[nH]c(=O)n([C@H]2C[C@H](O)[C@@H](CO)O2)cc1I [IDU, 5-iodo-2'-deoxyuridine] | 7 µg/mL (≈ 19.8 µM) | 10 µg/mL (≈ 28.2 µM) | 10 µg/mL (≈ 28.2 µM) |  | 
11 | NC(=O)c1ncn(C2O[C@H](CO)[C@@H](O)[C@H]2O)n1 (stereo partly shown) [Ribavirin, 1-ribofuranosyl-3-carbamoyl-1,2,4-triazol] | > 400 µg/mL | > 400 µg/mL | > 400 µg/mL | 100 µg/mL (≈ 409 µM) | > 400 µg/mL
